# Test results taken from PubChem BioAssay AID1159614 (National Center for Advancing Translational Sciences (NCATS), 2016).
# Hit rate of the full screen: of about 45,000 compounds, about 65 (0.1%) were called active. The call rests on the fitted dose curve; in most records, active means well fitted activation curve with a large enough effect; inconclusive means small, poorly fitted or top-dose-only effect; inactive means no such curve, though single readings can be large or run the other way. The list shows a part of the results.
# Molecular target: Galactocerebrosidase (Homo sapiens) (UniProt P54803)
# Assay: A Novel Cell-Based Assay to Identify Small Molecules for B -Galactocerebrosidase; further: 0% is about no effect; nearly all actives have a fitted effect of over 65% in size
# Details: 145M-Twi-hGALC-G270D cells, HMU-beta-Gal fluorescence, 48 h; series mostly up to 57.5 µM; activation: at the top concentration
# Procedure, shortened: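 qHTS, 1536-well; 145M-Twi-hGALC-G270D cells (WT line also made) in DMEM/F12 + 10% FBS; compound incubation on live cells; HMU-β-gal 0.1 mM final, pH 5.2, NaTC; carbonate stop; fluorescence increase = enhanced residual activity.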
# Chain of UniProt P54803 (P54803 whole entry, looked up): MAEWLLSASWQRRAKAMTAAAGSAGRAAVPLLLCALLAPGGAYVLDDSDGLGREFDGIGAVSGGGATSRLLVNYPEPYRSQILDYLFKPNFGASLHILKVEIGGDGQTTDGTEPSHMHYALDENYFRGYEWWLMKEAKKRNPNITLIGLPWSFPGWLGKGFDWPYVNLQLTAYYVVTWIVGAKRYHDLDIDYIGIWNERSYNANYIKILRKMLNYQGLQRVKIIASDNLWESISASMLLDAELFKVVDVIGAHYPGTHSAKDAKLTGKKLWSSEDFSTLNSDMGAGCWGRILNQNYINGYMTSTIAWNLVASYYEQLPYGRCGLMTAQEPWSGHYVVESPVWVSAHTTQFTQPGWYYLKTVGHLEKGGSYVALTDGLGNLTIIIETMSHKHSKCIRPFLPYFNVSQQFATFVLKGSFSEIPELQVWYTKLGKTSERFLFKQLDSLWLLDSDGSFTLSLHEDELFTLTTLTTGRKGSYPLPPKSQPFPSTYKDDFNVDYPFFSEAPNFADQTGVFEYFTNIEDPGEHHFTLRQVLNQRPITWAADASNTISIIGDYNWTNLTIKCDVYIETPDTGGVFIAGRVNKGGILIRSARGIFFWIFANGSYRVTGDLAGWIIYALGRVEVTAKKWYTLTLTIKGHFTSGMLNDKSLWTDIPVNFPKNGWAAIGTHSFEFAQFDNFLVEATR
row,Structure (SMILES),activation
1,Cc1ccc(N2CCN(C(=O)c3ccc(Nc4nc5ccccc5n5nnnc45)cc3)CC2)c(C)c1,inactive: -11.2%
2,COc1ccc(-n2c(=O)c3c4c(sc3n(CC(=O)N3CCCCC3C)c2=O)CCC4)c(OC)c1 (stereo not given),inactive: -1.81%
3,CC1CCN(CCCNC(=O)CN2C(=O)CSc3ccc(S(=O)(=O)N4CCC(C)CC4)cc32)CC1,inactive: -11.6%
4,Cc1cc(C)cc(NC(=O)C2CCCN(c3cnccn3)C2)c1 (stereo not given),inactive: -0.298%
5,O=C(NCc1ccc(F)cc1)c1cnc(N2CCOCC2)c2ccccc12,inactive: -6.53%
6,Cc1ccc(S(=O)(=O)c2cnc(SCC(=O)Nc3ccccc3C(F)(F)F)[nH]c2=O)cc1C,inactive: -0.0841%
7,Cc1ccc(Cl)cc1NC(=O)c1cc2c(=O)n3cccc(C)c3nc2n1C,inactive: -12.5%
8,CCOc1cc(CNC(=O)c2ccc3c(c2)nc2n3CCCCC2)ccc1OC,inactive: 11.3%
9,CCSc1nnc2c(n1)OC(c1ccc(OC)cc1OC)N(C(C)=O)c1ccccc1-2 (stereo not given),inactive: -7%
10,Cc1ccc(C2=NC(c3ccc(F)cc3)=Nc3ccc(C)cc3N2)cc1,inactive: -19.1%
11,CCC(=O)O[C@]1(C(=O)COC)[C@@H](C)C[C@H]2[C@@H]3CCC4=CC(=O)C=C[C@]4(C)C3(F)[C@@H](O)C[C@@]21C (stereo not given in full),inactive: -3.53%
12,O=C(NC1CCCC1)c1cnn(-c2ccc(F)cc2F)c1C1CCNCC1,inactive: -36.4%
13,O=S(=O)(O)c1cc(I)c(O)c2ncccc12,inactive: -7.65%
14,Cc1cccc(Cn2c(=O)n(CCCCC(=O)NCc3ccc4c(c3)OCO4)c(=O)c3ccccc32)c1,inactive: -16.1%
15,COc1ccc(Cl)cc1NC(=O)CSc1nc2c([nH]c3ccccc32)c(=O)n1-c1ccccc1,inactive: -6.59%
16,Cc1ccc(S(=O)(=O)N2CCN(Cc3ccccc3)CC2)c(C)c1NS(C)(=O)=O,inactive: -8.47%
17,Cc1ccc(NC(=O)CN2c3ccccc3S(=O)(=O)c3ccccc32)cc1F,inactive: -7.94%
18,CCN(C(=O)c1sc2cc(OC)ccc2c1Cl)c1ccccc1,inactive: -1.23%
19,CN(Cc1ccccc1)Cc1c(O)ccc2c(=O)c(-c3ccccc3)c(C(F)(F)F)oc12,inactive: -33%
20,Cc1ccc(NC(=O)/C(C#N)=C/c2ccccc2Cl)cc1C,inactive: 1.83%
21,COc1ccccc1OCCCCn1c(C2CC(=O)N(c3ccccc3Cl)C2)nc2ccccc21 (stereo not given),inactive: 1.86%
22,COc1ccccc1OCC1CNC(=O)O1 (stereo not given),inactive: -17.1%
23,COc1ccc(CCNC(=O)Cn2c(=O)n(-c3ccc(OC)c(OC)c3)c(=O)c3ccccc32)cc1OC,inactive: -6.15%
24,CCN(CC)CCNC(=O)CN1C(=O)c2cccnc2Oc2ccc(C)cc21,inactive: -3.98%

row,Structure (SMILES),activation
1,COc1cc(NC(=O)Cn2c(=O)n(CC(=O)NCCc3ccc(OC)c(OC)c3)c(=O)c3sccc32)cc(OC)c1,inactive: -18.6%
2,Cc1nc(-c2ccc(S(=O)(=O)N3CCN(c4cccc(Cl)c4)CC3)cc2)co1,inactive: -3.87%
3,CC(=O)c1cccc(NC(=O)c2sc(-n3nc(C)c(CCC(C)C)c3C)nc2C)c1,inactive: -6.46%
4,CC(=O)NCCNc1nc2c(-c3cccc(C)c3)nnn2c2ccc(Cl)cc12,inactive: -6.45%
5,CSc1ccc(CNC(=O)Cc2csc3ccccc23)cc1,inactive: -8.16%
6,COc1ccc(-n2nnnc2C2CCN(S(=O)(=O)c3ccc(F)cc3Cl)CC2)cc1,inactive: -9.02%
7,COc1cccc(Nc2sc(C(=O)c3ccc4c(c3)OCO4)c(N)c2S(=O)(=O)c2ccccc2)c1,inactive: -15.4%
8,COc1ccc(N2CC(NC(=O)Cc3cccs3)CC2=O)cc1 (stereo not given),inactive: -7.83%
9,CC(=O)Nc1ccc(S(=O)(=O)NCC2CCC(C(=O)NCc3ccccc3Cl)CC2)cc1 (stereo not given),inactive: -7.68%
10,Cc1ccc2ncc(S(=O)(=O)c3ccccc3)c(N3CCCCC3C)c2c1 (stereo not given),inactive: -38.1%
11,COc1ccc(CNC(=O)CN(c2cc(C(F)(F)F)ccc2Cl)S(C)(=O)=O)cc1,inactive: -26.8%
12,CCn1c(C)c(C)c2cc(C(=O)NCc3ccc(N(C)C)cc3)ccc21,inactive: 4.64%
13,COc1ccc(C2=NC3(CCCCCC3)N(CC(=O)Nc3ccc(C)c(C)c3)C2=O)cc1,inactive: -12%
14,Cc1ccccc1Nc1sc(C(=O)c2ccc(F)cc2)c(N)c1C(=O)NCCc1ccccc1,inactive: -6.85%
15,Cc1ccc(C(=O)c2oc3ccccc3c2NC(=O)c2cc(-c3ccc(Cl)cc3)on2)cc1,inactive: -11%
16,O=C1[C@H](CC[C@H](O)c2ccc(F)cc2)[C@@H](c2ccc(O)cc2)N1c1ccc(F)cc1,inactive: -7.9%
17,COc1ccc(Cl)cc1NC(=O)Cn1ncc2c3ccccc3n(Cc3ccccc3)c2c1=O,inactive: -8.07%
18,CCn1cc(C(=O)NCCc2ccc(OC)c(OC)c2)c(=O)c2cc(S(=O)(=O)N3CCOCC3)ccc21,inactive: -2.34%
19,Cc1ccc(C(=O)Nc2nnc(S(=O)(=O)N(C)Cc3ccco3)s2)cc1,inactive: -20.1%
20,Cc1ccc(C)c(NC(=O)CN2CCN(C3CCCCC3)C(=O)C2=O)c1,inactive: -18.3%
21,COc1cccc(CNC(=O)c2ccc3c(c2)nc2n3CCOC2)c1OC,inactive: -4.8%
22,Cc1cccc(-n2nnc(-c3nc(-c4ccccc4)no3)c2N)c1C,inactive: -5.4%
23,CC1CCN(S(=O)(=O)c2ccc3c(ccn3CC(=O)NCc3ccccc3F)c2)CC1,inactive: -15.3%
24,COc1ccc(S(=O)(=O)c2c(SC)nn(CC(=O)Nc3ccc(C)c(Cl)c3)c2N)cc1,inactive: -19.3%

row,Structure (SMILES),activation
1,Cc1ccc(-c2noc(C(C)NC(=O)c3ccco3)n2)cc1 (stereo not given),inactive: -11.5%
2,Cc1cnc(C(=O)NCCc2ccc(S(=O)(=O)NC(=O)NC3CCCCC3)cc2)cn1,inactive: -13.6%
3,O=C(Nc1cccc(C(F)(F)F)c1)c1cc(-c2ccc(Cl)cc2)on1,inactive: -9.33%
4,CCc1nc2c(cnn2-c2ccc(C)cc2)c(=O)n1-c1ccc(C)cc1,inactive: -10%
5,CC(C)C(=O)Nc1cccc(C(F)(F)F)c1,inactive: -12%
6,COCCCNC(=O)CSc1nc2cc3c(cc2c(=O)n1CCCCCC(=O)NCCc1ccc(OC)c(OC)c1)OCO3,inactive: -1.15%
7,CC(C)(C)C1CCc2nc(NC(=O)COc3ccccc3[N+](=O)[O-])sc2C1 (stereo not given),inactive: -15.4%
8,COc1ccc2c(CNC3CCCC3)c(C(=O)O)n(Cc3ccccc3C)c2c1,inactive: -19.5%
9,CCc1nn2c(=O)cc(COC(=O)c3cccc(NC(=O)c4ccccc4C)c3)nc2s1,inactive: -19%
10,Cc1ccccc1NC(=O)CN1C(=O)C2(SCC(=O)N2c2ccc(F)cc2)c2ccccc21 (stereo not given),inactive: -30.1%
11,CC1=C(c2ccc(C)cc2)S(=O)(=O)N(Cc2ccc(C(=O)NCc3ccccc3)cc2)C1=O,inactive: -17.3%
12,O=C(NCc1ccc(F)cc1)c1ccc2c(c1)N(Cc1c(F)cccc1Cl)C(=O)CS2,inactive: -2.83%
13,Cc1cc(C)c2c(=O)cc(C(=O)Nc3sc4c(c3C#N)CCCC4)oc2c1,inactive: -7.36%
14,COc1cccc(-n2ccn(CC(=O)Nc3ccccc3F)c(=O)c2=O)c1,inactive: -10.4%
15,O=C(Nc1ccc(F)c(F)c1)c1cc(S(=O)(=O)N2CCc3ccccc32)ccc1F,inactive: -6.17%
16,COc1ccc2c(c1)c(CC(=O)Nc1cccc(F)c1C)c(C)n2C(=O)c1ccc(Cl)cc1,inactive: -9.03%
17,Cc1ccc(CNC(=O)CSCc2nc(-c3ccc(Cl)cc3)oc2C)cc1,inactive: -14.6%
18,CCc1ccccc1NC(=O)Cn1cc(C(=O)c2ccc(Cl)cc2)c(=O)c2ccc(C)nc21,inactive: -15.7%
19,COc1ccc(C2=C(C)C(N3CCC(C(=O)NCc4ccco4)CC3)=NS2(=O)=O)cc1,inactive: -7.32%
20,Cc1ccc(CNS(=O)(=O)c2cc(C(=O)Nc3ccc(C(C)C)cc3)ccc2F)cc1,inactive: -8.23%
21,CCOc1ccc(NC(=O)N2CCC(CN3CCC(C)CC3)CC2)cc1,inactive: -6.09%
22,Cc1cccc(N2CCN(C(=O)COCc3cc(-c4ccc5c(c4)OCO5)on3)CC2)c1C,inactive: -8.9%
23,Cc1ccccc1-c1nc2c3c(-c4ccccc4)c(-c4ccccc4)oc3ncn2n1,inactive: -11.9%
24,COc1ccc(-c2cc(C(=O)NCCc3ccc(Cl)cc3)[nH]n2)cc1,inactive: -7.48%

row,Structure (SMILES),activation
1,CCOC(=O)c1[nH]c2ccccc2c1NC(=O)c1cc(OC)cc(OC)c1,inactive: -17.9%
2,COc1cccc(-c2ccnc3c(-c4ccccc4)c(C)nn23)c1,inactive: -9.11%
3,CCn1c(=O)n(-c2ccc(F)c(Cl)c2)c(=O)c2sc3ccccc3c21,inactive: -7.98%
4,Cc1ccc(CN(C(=O)c2ccc(F)cc2)c2ccccn2)o1,inactive: -20.5%
5,Cc1ccc(CNc2nc3c(c(=O)n(C)c(=O)n3C)n2Cc2ccc(Cl)cc2)cc1,inactive: -12.4%
6,COC(=O)c1ccccc1NC(=O)COCc1cc(-c2cccs2)on1,inactive: -17.2%
7,COc1ccccc1N1CCN(C(=O)c2cc3c(=O)n(Cc4cccs4)ccc3nc2C)CC1,inactive: -14.5%
8,CCOC(=O)N1CCc2c(sc3c2c(=O)n(-c2ccc(CC)cc2)c(=O)n3Cc2ccc(F)cc2Cl)C1,inactive: -10.8%
9,COc1ccc(N2CCN(CCCNC(=O)c3c(C)nn(-c4ccc(F)cc4)c3-n3cccc3)CC2)cc1,inactive: -30.5%
10,COc1ccc(S(=O)(=O)N(CC(=O)NC(C)c2ccccc2)c2ccc(C)cc2)cc1OC (stereo not given),inactive: -11.2%
11,CCc1ccc(NC(=O)Cn2nnc(-c3ccccc3N)n2)cc1,inactive: -5.52%
12,Cc1cccc(N2CCN(c3ccc4cc(S(=O)(=O)N5CCC(C)CC5)ccc4n3)CC2)c1C,inactive: -20.1%
13,CC(C)C(=O)Nc1nnc(S(=O)(=O)N2CCc3ccccc32)s1,inactive: -6.63%
14,CCOc1ccc(NC(=O)Cn2nc(Cc3cccnc3)c3ccccc3c2=O)cc1,inactive: -11.7%
15,COc1ccccc1NC(=O)N1CCN(c2ccc3nnc(-c4ccc(F)cc4)n3n2)CC1,inactive: -10.1%
16,CCOc1ccc2nc(N3CCCC(C(=O)NCCc4ccc(Cl)cc4)C3)sc2c1 (stereo not given),inactive: -3.16%
17,CCOC(=O)c1c(NC(=O)Cc2coc3ccc(CC)cc23)sc2c1CCC2,inactive: -10.1%
18,Cc1ccc(-n2ncc3c(NCCCn4ccnc4)ncnc32)cc1C,inactive: -5.97%
19,Cc1ccc(OCC(=O)Nc2ccc(OCc3cc(=O)n4c(C)csc4n3)cc2)cc1C,inactive: -8%
20,CCc1ccc(NC(=O)CC(NCc2cccnc2)C(=O)O)cc1 (stereo not given),inactive: -9.35%
21,O=c1oc2ccccc2cc1-c1cn2cc(Cc3ccc(F)cc3)sc2n1,inactive: -7.75%
22,CCOC(=O)c1c(C)oc2ncnc(Nc3cccc(C(F)(F)F)c3)c12,inactive: 3.61%
23,Cc1nc(-c2ccc(Cl)cc2)sc1CCNC(=O)C(=O)Nc1ccc2c(c1)OCO2,inactive: -12.6%
